# PubChem BioAssay AID760 (NMMLSC, 2007)
# The whole screen tested about 190,000 compounds, of which about 360 (0.19%) were called active. This list was built around the results that the source calls inconclusive (neither active nor inactive); the mix of calls is not that of the screen.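 Rule for the calls: active = GTP binding activity at least 20 points away from 100%, either lowered or raised; inconclusive = signal likely due to the compound's own green fluorescence; inactive = the rest.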
# Target: Ras-related protein Rab-2A (Canis lupus familiaris) (UniProt P61105)
# Test: Rab2 wt fluorescent GTP binding changes, either direction – biochemical, dog, bead-based flow cytometry, multiplex, primary screen (AID 760);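 note: 0% = beads with excess unlabeled GTP and 100% = no-compound control corrected for plate trend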
# Settings: GST-Rab2 wt beads, Bodipy-GTP binding, at 10 µM
row,SMILES,GTP binding activity
1,COc1ccc(C2CC(c3ccccc3)=NN2C(=O)COC(=O)c2nc3nccc(C)n3n2)cc1 (configuration not stated),inactive: 96%
2,Cc1cc2cc(C)c(NCCNC(=O)c3ccccc3Cl)nc2cc1C,inconclusive: 94%
3,O=C(COC(=O)c1ccc2c(c1[N+](=O)[O-])C(=O)c1ccccc1C2=O)NC1CC1,active: 73%
4,COC(=O)c1c(NC(=O)C2CC2)sc(C(=O)Nc2ccccc2)c1C,inconclusive: 94%
5,Oc1c(C(Nc2nccs2)c2ccc(C(F)(F)F)cc2)ccc2cccnc12 (configuration not stated),inactive: 99%
6,CCOCCOC(NC(=O)c1ccccc1)(C(F)(F)F)C(F)(F)F,inactive: 99%
7,CC(C)(C)NC(=O)C1CCN(S(=O)(=O)c2cccc(C(F)(F)F)c2)CC1,inactive: 95%
8,C=CCNC(=O)COC(=O)c1ccc(C)c(NC(=O)c2ccco2)c1,inconclusive: 91%
9,Cc1ccc(Nc2nc(N)c(C#N)c(CC#N)c2C#N)cc1,inconclusive: 45%
10,CC(Nc1cc(N2CCN(S(=O)(=O)N(C)C)CC2)ccc1[N+](=O)[O-])c1ccccc1 (configuration not stated),inconclusive: 95%
11,O=C(NC(NC(=S)Nc1ccccc1C(=O)O)C(Cl)(Cl)Cl)c1ccco1 (configuration not stated),inconclusive: 88%
12,CCN(CC)CCCN(Cc1cc2cc(OC)c(OC)cc2[nH]c1=O)C(=O)Nc1ccccc1,inconclusive: 100%
13,CCOc1nnc(C)c2c(C)n(-c3cccc(Cl)c3)nc12,inconclusive: 147%
14,Cc1no[n+]([O-])c1COc1cccc(/C=C2\N=C(c3ccccc3)OC2=O)c1,inconclusive: 138%
15,CCOc1cc(C2NC(=O)N(C)C(C)=C2[N+](=O)[O-])ccc1OC(C)=O (configuration not stated),inconclusive: 92%
16,CSc1ccccc1NC(=O)c1cc2ncc(Br)cn2n1,inactive: 100%
17,NC1=NS(=O)(=O)NC1c1ccc(Br)cc1 (configuration not stated),inactive: 97%
18,Cc1oc2c(O)c(O)ccc2c(=O)c1-c1cnn(-c2ccccc2)c1,inactive: 101%
19,CCOc1ccc(-n2c(SCC(=O)NC(C)CC)nc3n[nH]c(C)c3c2=N)cc1 (configuration not stated),inconclusive: 70%
20,Cc1cccc(C)c1NC(=O)CN(C)C(C)C(=O)Nc1ccccc1-c1ccccc1 (configuration not stated),inconclusive: 93%
21,O=S(=O)(Nc1cccc(-c2cn3c(n2)SCC3)c1)c1cccs1,inconclusive: 94%
22,O=C1CC(c2ccccc2)CC(O)=C1C=NCc1ccco1 (configuration not stated),inconclusive: 103%
23,COc1ccccc1N1CCN(S(=O)(=O)c2cccc(F)c2)CC1,inconclusive: 406%

row,SMILES,GTP binding activity
1,CC(Sc1nnc2ccccn12)C(=O)N1CCc2ccccc2C1 (configuration not stated),inconclusive: 105%
2,CCc1nnc(NC(=O)CSc2nnc(-c3cccnc3)n2C)s1,inactive: 98%
3,Cc1ccc(NS(=O)(=O)c2ccc(C3CCCCC3)cc2)cc1,inconclusive: 101%
4,Cc1ccc2nsnc2c1NC(=O)c1ccccc1[N+](=O)[O-],inconclusive: 106%
5,CC(=O)Nc1ccc(S(=O)(=O)Oc2ccc(/C=N/NC(=O)c3ccc(Cl)cc3)cc2)cc1,inactive: 97%
6,Cc1ccnc(NS(=O)(=O)c2ccc(CC(C)C)cc2)c1,inconclusive: 102%
7,CCOC(=O)N1CCC(NC(=O)CCc2c(C)nc3nc(C)nn3c2C)CC1,inconclusive: 104%
8,Cc1cccc(C)c1OC(=O)C(c1ccccc1)c1ccccc1,inactive: 99%
9,CCOC(=O)c1cnc2c(Cl)cccc2c1NCCN(C)C,inconclusive: 100%
10,Cn1c(=O)n(Cc2ccco2)c(=N)c2c3c(sc21)CCCC3,inconclusive: 90%
11,CCCCc1cc(=O)oc2c(CN(C)C)c(O)c(Cl)cc12,inconclusive: 110%
12,CCOc1cc(/C=C(\C#N)C(N)=O)ccc1OS(=O)(=O)c1ccccc1,inconclusive: 103%
13,O=C(CN1CCN(c2ccccc2O)CC1)NC(=O)NCc1ccco1,inconclusive: 100%
14,COc1ccc(C(=O)Nc2cccc(C(C)=O)c2)cc1OC,inconclusive: 103%
15,N/C(Cn1cncn1)=N\NC(=O)C(=O)Nc1cccc(C(F)(F)F)c1,inactive: 97%
16,Cc1ccc(NC(=S)N=Nc2c(O)[nH]c3ccccc23)cc1,inactive: 84%
17,COC(=O)c1cc(NCc2ccccc2F)ccc1N1CCOCC1,inconclusive: 94%
18,O=C(COCC(=O)NCc1ccccc1)NCc1ccccc1,inconclusive: 94%
19,O=C(c1nn2c(C(F)(F)F)cc(-c3ccc(F)cc3)nc2c1Cl)N1CCOCC1,inconclusive: 202%
20,Cc1cc(-c2nnc3n2N=C(c2ccc(-c4ccccc4)cc2)CS3)n[nH]1,active: 79%
21,CC(C)C(=O)Nc1ccc(C(=O)NNC(=O)C(c2ccccc2)c2ccccc2)cc1,inconclusive: 95%
22,CC1S/C(=N/N=C/c2cccs2)NC1=O (configuration not stated),inconclusive: 93%
23,Cc1ccc2cc(CN(CC3CCCO3)C(=S)Nc3ccccc3)c(=O)[nH]c2c1 (configuration not stated),inconclusive: 95%

row,SMILES,GTP binding activity
1,COC(=O)C1=CN(C2CC2)C=C(C(=O)OC)C1c1ccccc1OC,inconclusive: 92%
2,CCOC(=O)c1c2c3c(cccc3[nH]c1=O)C(=O)c1ccccc1-2,active: 65%
3,CC(=O)C(Cc1cccc(F)c1)(Cc1cccc(F)c1)C(C)=O,inconclusive: 93%
4,Cc1ccc(C2NC(=O)NC3=C2CCc2ccccc23)cc1 (configuration not stated),inconclusive: 92%
5,COCCSc1nnc(NC(=O)CSCc2ccccc2)s1,inconclusive: 101%
6,COc1ccc(N2C(=O)CC(Cc3ccccc3)C2=O)cc1 (configuration not stated),inconclusive: 105%
7,CCOC(=O)C1CCN(C(=O)CCNC(=O)Cn2ccc3ccccc3c2=O)CC1,inconclusive: 104%
8,CCc1nc(N2CCCCC2C)c2oc3ccccc3c2n1 (configuration not stated),inconclusive: 90%
9,O=C(CCS(=O)(=O)c1cccc2nonc12)N1CCCc2ccccc21,inactive: 104%
10,CCOc1ccc(N2C(=O)c3ccc(C(=O)OCC(=O)N(CC)C4CCS(=O)(=O)C4)cc3C2=O)cc1 (configuration not stated),inconclusive: 95%
11,COc1ccc(CNC(=S)NC(C)CCc2ccccc2)cc1 (configuration not stated),inactive: 97%
12,O=C(O)c1csc(-n2nc(-c3ccccc3)cc2C(F)(F)F)n1,inconclusive: 90%
13,O=S1(=O)CC(O)C(N2CCC(c3ccccc3)CC2)C1 (configuration not stated),inconclusive: 100%
14,CCc1nnc(NC(=O)CSc2nnc(Cc3cc(=O)[nH]c(=O)[nH]3)n2-c2ccc(OC)cc2)s1,inconclusive: 93%
15,CC(C)NC(=O)/C(C#N)=C\c1ccc(N(C)C)c(Br)c1,inactive: 94%
16,CC(=O)c1cccc(NC(=O)N2CCCC2C(=O)NCc2ccc(C)cc2)c1 (configuration not stated),inconclusive: 100%
17,O=C(N/N=C/c1cccnc1)C(O)c1ccccc1 (configuration not stated),inconclusive: 100%
18,COc1ccc(CN2C(=O)/C(=C/c3ccc(-c4ccc(Cl)c(C(=O)O)c4)o3)SC2=S)cc1,active: 79%
19,CC1(C)Cc2c(sc(NC(=S)NC(=O)c3ccccc3)c2C(=O)O)CO1,active: 69%
20,COc1cc(OC)c(NS(=O)(=O)c2cc(C(=O)OCC(=O)NCC3CCCO3)ccc2OC)cc1Cl (configuration not stated),inactive: 96%
21,Nc1c([N+](=O)[O-])c(=O)oc2ccccc12,inactive: 95%
22,Cc1nc2ncnn2c(C)c1Cc1cccc(C(F)(F)F)c1,inactive: 101%
23,COc1ccc(C)cc1NC(=O)C(NC(=O)c1cc(OC)c(OC)c(OC)c1)C(C)C (configuration not stated),inconclusive: 94%

row,SMILES,GTP binding activity
1,COc1ccc(-n2c(C)nc3cc(C(=O)NCc4ccc5c(c4)OCO5)ccc32)cc1,inconclusive: 79%
2,CC1(C)CC(=O)c2cnc(NCc3ccco3)nc2C1,inconclusive: 102%
3,COC(=O)c1ccc(CSc2nnc(Nc3ccc(C)cc3)s2)o1,inconclusive: 87%
4,O=C(CSc1nnc(-c2cccnc2)n1-c1ccc(SC(F)F)cc1)N1CCCc2ccccc21,inactive: 97%
5,NS(=O)(=O)c1ccc(-c2ccc(/C=C3\C(=O)Nc4cc(Cl)ccc43)o2)cc1,active: 76%
6,CC(=O)c1cnc2n(c1=O)CCS2,inactive: 99%
7,S=C(NCc1ccco1)Nc1ccc(Oc2ccccc2)cc1,inactive: 99%
8,COc1ccc(C(=O)N2CCN(Cc3ccc4c(c3)OCO4)CC2)cc1[N+](=O)[O-],inactive: 97%
9,COc1cc2[nH]c3c(Cl)ncnc3c2cc1OC,inconclusive: 92%
10,O=C(C1CCCO1)N1CCN(C(=S)Nc2ccccc2C(F)(F)F)CC1 (configuration not stated),active: 125% [activator]
11,O=C(Cc1ccccc1)Nc1nc2ccccc2[nH]1,inconclusive: 105%
12,Cc1ccc(C(=O)COC(=O)c2ccc3c(c2)C(=O)N(c2cccc4ncccc24)C3=O)cc1C,inconclusive: 78%
13,O=C(Cc1cccs1)N1CCN(S(=O)(=O)c2ccc(Br)cc2)CC1,inactive: 97%
14,COc1ccccc1-c1ccc(SCc2cccc(F)c2)nn1,inconclusive: 90%
15,OC1(c2ccc3c(c2)OCO3)CCN(Cc2ccccn2)CC1,inconclusive: 104%
16,Cn1c(=O)c2c(nc(N/N=C/c3ccco3)n2C)n(C)c1=O,inactive: 83%
17,COc1cccc(C2CC(c3cccs3)=NN2C(=O)CSc2nc3ccccc3o2)c1OC (configuration not stated),inconclusive: 96%
18,Cc1ccc(Nc2nc(-c3c(C)nc4ncccn34)cs2)cc1,inconclusive: 70%
19,Cc1nc2c(C(=O)NCc3ccccc3)c[nH]n2c(=O)c1Cl,inconclusive: 95%
20,COC(=O)C1=C(C)OC(N)=C(C#N)C1c1c(C)nn(-c2ccccc2)c1Cl (configuration not stated),inactive: 101%
21,COc1ccc(OC)c(CNC(=O)c2coc(=O)c3ccccc23)c1,inactive: 96%
22,CCn1nc(C)c(/C=N/NC(=O)Cc2ccc(Cl)cc2)c1C,inconclusive: 101%
23,Cc1c(C(=O)N/N=C/c2ccc(-c3ccccc3[N+](=O)[O-])o2)sc(N)c1C#N,inconclusive: 57%
